In the supplement of paper PMC3334620:
Over roughly 33,000 sequences, “E-score (-0.5 to 0.5)” has its median near -0.036; the highest 2% begin near 0.37. The list shows a part of the results.

Biological target: T1, Yer064c (UniProt P40041)
T1 sequence: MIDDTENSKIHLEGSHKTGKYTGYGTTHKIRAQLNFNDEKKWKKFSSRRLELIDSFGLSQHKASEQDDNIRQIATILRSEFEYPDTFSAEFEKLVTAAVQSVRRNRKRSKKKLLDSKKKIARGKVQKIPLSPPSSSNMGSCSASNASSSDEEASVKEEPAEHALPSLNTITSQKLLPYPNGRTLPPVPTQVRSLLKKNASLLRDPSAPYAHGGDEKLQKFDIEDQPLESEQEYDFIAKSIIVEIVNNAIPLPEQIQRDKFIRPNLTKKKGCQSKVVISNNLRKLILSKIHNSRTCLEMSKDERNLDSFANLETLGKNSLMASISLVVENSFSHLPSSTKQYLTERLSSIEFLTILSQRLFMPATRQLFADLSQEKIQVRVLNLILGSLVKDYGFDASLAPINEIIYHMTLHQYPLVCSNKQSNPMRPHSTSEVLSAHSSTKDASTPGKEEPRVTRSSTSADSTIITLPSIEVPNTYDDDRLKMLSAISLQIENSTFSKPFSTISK
Assay: PBM E-score (8-mer binding enrichment) (E-score (-0.5 to 0.5)); higher = stronger / more preferred TF binding; most listed sequences are background and not binding sites
Details: protein concentration: 200 nM; construct: GST-full length
Method in brief: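 For each ungapped eight-base word taken together with its reverse complement, the Universal PBM Analysis Suite assigned an E-score. Binding data came from GST-tagged yeast transcription factors, applied at about 100-200 nM, on universal all-10-mer Agilent arrays made double-stranded by primer extension. Fluorescent anti-GST marked bound protein, and scans were normalised with masliner.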

Sequence | PBM E-score
ATTTAAGC | -0.0436
ACTTTGAC | 0.292
ATGAAGCA | -0.183
AACCCAAC | 0.0746
ACTAGAAA | 0.118
GATTCCTA | 0.27
TAGTCCCA | 0.201
CATTAGCG | -0.0726
AGCGCATG | -0.108
AGAGATGA | 0.268
ATGCTCAG | -0.00028
AGCAGAAA | -0.0226
CTCAATAC | 0.101
GTTCATGA | 0.282
CATTTTGC | -0.0161
CATCAACC | 0.159
GGTCAACA | 0.186
AACCAGCG | -0.179
AGGGATAC | -0.299
CCTTTTCC | -0.258
GTTGCTGA | 0.197
ACAAACAC | 0.0393
AAACGAAC | -0.00696
CGCTACCA | -0.2
GGAGATGA | 0.246

Sequence | PBM E-score
TACGAGCA | -0.156
GGTGATGA | 0.191
CAACACCA | -0.0115
GACCTCTA | -0.0732
CAAGTAGG | -0.0276
AAACACGC | -0.181
GTCATAAA | 0.239
ACGTCGCG | 0.00147
GACGATCA | 0.0561
AACATCGC | -0.25
GCTTTGGA | -0.109
CAACTCCA | -0.278
AATTGGAT | 0.0801
CTTATTCA | -0.0272
TAATAAGA | 0.101
ATTAAAAT | 0.143
ATCCCTGG | -0.0925
CGGGACTC | 0.266
CGGAGTAA | 0.0591
GACGTGGC | -0.181
CGTCGAGA | 0.0495
AATAACTA | 0.0495
AGAAATAT | -0.0573
AAAACATT | 0.0184
CCATTAAG | 0.0188

Sequence | PBM E-score
GCAATGAC | 0.322
TCCCACAA | 0.095
CGGTAGTC | 0.409
GAAGTCTA | -0.011
ACCAGGCG | -0.146
ATGCAAGA | 0.139
AGGATAAT | 0.0639
AGCATCGA | -0.157
AACATCTT | -0.205
TGTGCGAA | 0.0012
CTGCCCGC | -0.00975
GACCTTTA | -0.0143
GCACGGGA | -0.145
GAAGCGTA | -0.151
CGGTTATA | -0.175
AATCTATC | -0.0431
AACTGGAT | -0.0845
ACTGAGGC | -0.0486
AATACTCC | 0.0962
CAGTGCCC | -0.277
CTTATCCC | -0.147
GAACTAAC | -0.0243
CGTCGGGC | -0.267
CGATAACC | -0.146
GCCTCTAA | -0.235

Sequence | PBM E-score
CCTTTCCA | -0.169
ATCCATCA | 0.129
GGTCAGAC | 0.0361
ATTTTGTC | -0.00252
GGCGAGAC | 0.0649
AAGTTATT | 0.072
CAGTCGAA | -0.0398
GATCTGAA | 0.11
ACGCTAAA | 0.0957
GGCCATCA | -0.279
ACCTTCAT | -0.206
CCTAGGAA | -0.181
ATAAAGTG | 0.0774
AATGGAAT | -0.0403
CCTTTACG | -0.104
CTGAAGCC | 0.111
GATGTCTA | 0.273
CAGTACGC | -0.0802
ATAGTTTC | 0.201
CAATGTGG | -0.135
ACTAGATA | 0.177
CAGATGAC | 0.215
AACGGCAT | -0.0999
ACAACAGT | 0.131
ACTCAAAC | 0.344

Sequence | PBM E-score
GGGGGGTA | -0.148
AACAATTG | 0.0879
GACTTACC | 0.294
CTCAGCGC | 0.00265
GGCCCCCA | -0.402
CTACTAGC | 0.089
ACGACCCC | -0.275
GATGCTGA | -0.0582
ACGGAAAG | -0.0796
GACGCTAC | 0.0103
ACTAACCT | 0.197
TGTCACAA | 0.156
CTTACCAA | -0.0253
CTATACCC | -0.139
GCCTGTCC | -0.279
CCAACACG | -0.00911
AATGAATA | 0.132
GTACCGCA | -0.0756
CGGACGAG | -0.0356
ATCTCCGA | 0.0166
TCTTCACA | 0.127
CGCACAAC | -0.214
ACTGAGTC | 0.477
GTGATATA | -0.166
CACCTAGC | -0.105

Sequence | PBM E-score
ATGAAGCC | -0.12
AGGAATTG | -0.103
GGCCGCGA | -0.206
CAGCTGAA | 0.0482
CCGAGTAG | 0.0202
ATCCCGGG | -0.189
AGTACCCA | 0.157
TCCTTAAA | 0.171
CTGCTCCC | -0.256
AAAAGCTA | -0.128
ATAAAGTA | 0.139
CACCCTCA | -0.00422
ACGCCCGG | 0.112
GGGTTTTA | -0.26
CTTTACTC | 0.107
CGGGGCTA | -0.167
AAGTCTTG | 0.205
GGGCGCGA | -0.0578
CTCCAAGC | -0.156
AGAGGAAG | -0.12
CATACATG | 0.0976
ACTCGCAA | 0.218
ATGTTACG | -0.102
CAGCCTCC | -0.283
CCCGCGGC | -0.182

Sequence | PBM E-score
AAATCACG | 0.264
CCCTCAGC | -0.191
AGCCCCGG | -0.302
GGCCTCAA | -0.19
GATCAACA | 0.168
CGTGAGAC | 0.137
CACGAGCA | -0.0331
AAACCTGG | 0.0113
ATCCGCGC | -0.0971
TCCGCAGA | -0.102
AATCTCGG | 0.00127
TATTTAAA | 0.119
GTAAGACA | -0.0654
AGTTCCAA | 0.0291
AATTGCAC | -0.147
CGTACTGC | -0.092
GGGACCGA | -0.0437
GGTATTAC | -0.0144
AAACAAGG | -0.0917
AATACCCA | 0.128
AAAGCGAA | -0.0893
ATCCATTC | 0.0758
